Data as given in patent US20240254223A1 (NOVIMMUNE, published 2024).

T1: high affinity trimeric IL-2R (IL-2Rα, IL-2Rβ and IL-2Rγ) on HEK-Blue IL-2 cells (UniProt P01589 22-272; P14784 27-551; P31785 23-369)
T1 sequence (looked up) 1: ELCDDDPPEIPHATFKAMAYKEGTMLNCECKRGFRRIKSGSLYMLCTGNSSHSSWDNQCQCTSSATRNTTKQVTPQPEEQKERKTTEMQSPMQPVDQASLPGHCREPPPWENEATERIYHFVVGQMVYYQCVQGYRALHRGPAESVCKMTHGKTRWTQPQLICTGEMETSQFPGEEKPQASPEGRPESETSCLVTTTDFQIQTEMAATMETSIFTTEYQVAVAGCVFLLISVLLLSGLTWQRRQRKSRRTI
T1 sequence (looked up) 2: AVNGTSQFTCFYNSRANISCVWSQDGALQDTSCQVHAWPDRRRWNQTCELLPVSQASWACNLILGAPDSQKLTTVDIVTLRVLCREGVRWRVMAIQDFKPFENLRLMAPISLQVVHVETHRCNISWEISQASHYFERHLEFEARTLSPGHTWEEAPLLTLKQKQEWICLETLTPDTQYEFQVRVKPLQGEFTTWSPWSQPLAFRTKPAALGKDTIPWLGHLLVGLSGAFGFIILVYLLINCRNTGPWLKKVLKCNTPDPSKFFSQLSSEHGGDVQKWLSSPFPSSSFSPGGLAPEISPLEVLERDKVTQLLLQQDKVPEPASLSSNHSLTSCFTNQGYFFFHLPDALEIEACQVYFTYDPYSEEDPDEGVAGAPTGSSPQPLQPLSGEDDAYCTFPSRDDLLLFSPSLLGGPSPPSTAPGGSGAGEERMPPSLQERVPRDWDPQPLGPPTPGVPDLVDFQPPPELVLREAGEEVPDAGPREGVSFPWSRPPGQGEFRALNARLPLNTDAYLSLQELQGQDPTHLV
T1 sequence (looked up) 3: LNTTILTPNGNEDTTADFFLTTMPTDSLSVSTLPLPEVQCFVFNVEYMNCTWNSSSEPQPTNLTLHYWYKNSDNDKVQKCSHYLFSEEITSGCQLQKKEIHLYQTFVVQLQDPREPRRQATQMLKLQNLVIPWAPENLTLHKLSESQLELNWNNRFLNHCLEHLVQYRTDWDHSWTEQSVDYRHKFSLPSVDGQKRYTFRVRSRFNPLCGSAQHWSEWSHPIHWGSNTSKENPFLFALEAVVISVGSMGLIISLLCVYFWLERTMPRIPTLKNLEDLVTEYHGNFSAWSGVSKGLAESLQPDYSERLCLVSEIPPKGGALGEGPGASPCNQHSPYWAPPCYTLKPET

T2: low-moderate affinity dimeric IL-2R (IL-2Rβ and IL-2Rγ) on HEK-Blue CD122/CD132 cells (UniProt P14784 27-551; P31785 23-369, limits assumed)
T2 sequence (looked up) 1: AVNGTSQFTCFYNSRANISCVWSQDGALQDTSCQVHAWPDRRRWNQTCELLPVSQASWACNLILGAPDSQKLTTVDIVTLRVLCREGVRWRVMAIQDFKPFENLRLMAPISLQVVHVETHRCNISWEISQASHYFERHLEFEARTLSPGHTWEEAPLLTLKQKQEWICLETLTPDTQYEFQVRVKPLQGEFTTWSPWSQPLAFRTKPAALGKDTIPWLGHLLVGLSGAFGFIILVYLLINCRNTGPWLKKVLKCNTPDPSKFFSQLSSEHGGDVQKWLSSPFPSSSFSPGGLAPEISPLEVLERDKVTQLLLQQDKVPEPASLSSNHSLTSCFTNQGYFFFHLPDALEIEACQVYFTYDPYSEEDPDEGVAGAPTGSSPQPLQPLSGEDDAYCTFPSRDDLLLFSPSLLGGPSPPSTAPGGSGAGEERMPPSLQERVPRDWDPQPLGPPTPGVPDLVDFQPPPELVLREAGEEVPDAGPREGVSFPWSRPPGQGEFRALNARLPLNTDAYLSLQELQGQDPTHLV
T2 sequence (looked up) 2: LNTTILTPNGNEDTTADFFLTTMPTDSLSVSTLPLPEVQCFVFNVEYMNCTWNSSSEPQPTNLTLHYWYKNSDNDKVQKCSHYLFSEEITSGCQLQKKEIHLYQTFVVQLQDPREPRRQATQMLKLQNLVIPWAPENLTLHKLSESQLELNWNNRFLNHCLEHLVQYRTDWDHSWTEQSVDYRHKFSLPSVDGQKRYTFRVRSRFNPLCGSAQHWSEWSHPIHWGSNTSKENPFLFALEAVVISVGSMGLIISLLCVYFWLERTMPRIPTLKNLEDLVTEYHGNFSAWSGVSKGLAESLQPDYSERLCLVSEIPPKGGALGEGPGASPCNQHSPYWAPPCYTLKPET


Experiments:
[1] = target: T1, high affinity trimeric IL-2R (IL-2Rα, …); assay: cell-based or functional assay
[2] = target: T2, low-moderate affinity dimeric IL-2R …; assay: cell-based or functional assay
[3] = target: T3, CD47 at the surface of Peak cells (human, UniProt Q08722); assay: flow cytometry, Peak cells, before cleavage
T3 construct: whole, on cells; also called cell surface CD47

[4] = target: T3, CD47 at the surface of Peak cells; assay: flow cytometry, Peak cells; EC50 before / EC50 after cleavage
His-tagged human CD47 = target: T4, His-tagged human CD47 (human, UniProt Q08722 part only, limits assumed); assay: BLI, His-CD47 on HIS1K sensor, antibody 15 µg/mL
T4 construct: loaded on HIS1K biosensors at 2.5 µg/mL; also called target antigen; not shown: His tag

Binder	EC50 before cleavage IL-2, HEK Blue IL-2 αβγ reporter assay [1]	EC50 ratio (BC/AC), HEK Blue IL-2 αβγ reporter assay [1]	EC50 before cleavage IL-2, HEK Blue IL-2 βγ reporter assay [2]	EC50 ratio (BC/AC), HEK Blue IL-2 βγ reporter assay [2]	EC50 [3]	Binding recovery (BC/AC) [4]	Binding before cleavage (BLI) (His-tagged human CD47)
pNOVI V2K K91_M2_IL-2Rα_1_238_CM1_IL-2 F42A_21_153_CM1 VKCK IL-2Rβ_1_239_CM1_VHCH (antibody, human IgG1, kappa, masked K91 fusion with IL-2 F42A, uncleaved; also called n780; construct No 780) light: ELCDDDPPEIPHATFKAMAYKEGTMLNCECKRGFRRIKSGSLYMLCTGNSSHSSWDNQCQCTSSATRNTTKQVTPQPEEQKERKTTEMQSPMQPVDQASLPGHCREPPPWENEATERIYHFVVGQMVYYQCVQGYRALHRGPAESVCKMTHGKTRWTQPQLICTGEMETSQFPGEEKPQASPEGRPESETSCLVTTTDFQIQTEMAATMETSIFTTEGGGGSVHMPLGFLGPGGGGS[about 150 residues with changes left out]GGGGSVHMPLGFLGPGGSDIQMTQSPSSLSASVGDRVTITCNVDQVIANWLNWYQQKPGKAPKLLIYAASSLQSGVPSRFSGSGSGTDFTLTISSLQPEDFATYYCQQMHPRAPKQFGQGTKVEIKRTVAAPSVFIFPPSDEQLKSGTASVVCLLNNFYPREAKVQWKVDNALQSGNSQESVTEQDSKDSTYSLSSTLTLSKADYEKHKVYACEVTHQGLSSPVTKSFNRGEC heavy: AVNGTSQFTCFYNSRANISCVWSQDGALQDTSCQVHAWPDRRRWNQTCELLPVSQASWACNLILGAPDSQKLTTVDIVTLRVLCREGVRWRVMAIQDFKPFENLRLMAPISLQVVHVETHRCNISWEISQASHYFERHLEFEARTLSPGHTWEEAPLLTLKQKQEWICLETLTPDTQYEFQVRVKPLQGEFTTWSPWSQPLAFRTKPAALGKDGGGGSVHMPLGFLGPGGS[about 120 residues left out][about 100 residues left out][human IgG1 Fc left out]	640 pM	34	230 pM	17	41200 pM	40	0.5 nm
pNOVI V2K K91_M3_IL-2Rα_1_238_CM1_IL-2 D20T_21_153_CM1 VKCK IL-2Rβ_1_239_CM1_VHCH (antibody, human IgG1, kappa, masked K91 fusion with IL-2 D20T, uncleaved; also called n790; construct No 790) light: ELCDDDPPEIPHATFKAMAYKEGTMLNCECKRGFRRIKSGSLYMLCTGNSSHSSWDNQCQCTSSATRNTTKQVTPQPEEQKERKTTEMQSPMQPVDQASLPGHCREPPPWENEATERIYHFVVGQMVYYQCVQGYRALHRGPAESVCKMTHGKTRWTQPQLICTGEMETSQFPGEEKPQASPEGRPESETSCLVTTTDFQIQTEMAATMETSIFTTEGGGGSVHMPLGFLGPGGGGS[about 150 residues with changes left out]GGGGSVHMPLGFLGPGGSDIQMTQSPSSLSASVGDRVTITCNVDQVIANWLNWYQQKPGKAPKLLIYAASSLQSGVPSRFSGSGSGTDFTLTISSLQPEDFATYYCQQMHPRAPKQFGQGTKVEIKRTVAAPSVFIFPPSDEQLKSGTASVVCLLNNFYPREAKVQWKVDNALQSGNSQESVTEQDSKDSTYSLSSTLTLSKADYEKHKVYACEVTHQGLSSPVTKSFNRGEC heavy: AVNGTSQFTCFYNSRANISCVWSQDGALQDTSCQVHAWPDRRRWNQTCELLPVSQASWACNLILGAPDSQKLTTVDIVTLRVLCREGVRWRVMAIQDFKPFENLRLMAPISLQVVHVETHRCNISWEISQASHYFERHLEFEARTLSPGHTWEEAPLLTLKQKQEWICLETLTPDTQYEFQVRVKPLQGEFTTWSPWSQPLAFRTKPAALGKDGGGGSVHMPLGFLGPGGS[about 120 residues left out][about 100 residues left out][human IgG1 Fc left out]	650 pM	18	1440 pM	19	40500 pM	25	0.6 nm
pNOVI V2K K91_G3_IL-2Rγ_1_262_CM1_IL-2_21_153_CM1 VKCK_IL-2Rα_1_238_CM1_VHCH (antibody, human IgG1, kappa, masked K91 fusion, uncleaved; also called n870; construct No 870) light: LNTTILTPNGNEDTTADFFLTTMPTDSLSVSTLPLPEVQCFVFNVEYMNCTWNSSSEPQPTNLTLHYWYKNSDNDKVQKCSHYLFSEEITSGCQLQKKEIHLYQTFVVQLQDPREPRRQATQMLKLQNLVIPWAPENLTLHKLSESQLELNWNNRFLNHCLEHLVQYRTDWDHSWTEQSVDYRHKFSLPSVDGQKRYTFRVRSRFNPLCGSAQHWSEWSHPIHWGSNTSKENPFLFALEAGGGGSVHMPLGFLGPGGGGS[about 150 residues left out]GGGGSVHMPLGFLGPGGSDIQMTQSPSSLSASVGDRVTITCNVDQVIANWLNWYQQKPGKAPKLLIYAASSLQSGVPSRFSGSGSGTDFTLTISSLQPEDFATYYCQQMHPRAPKQFGQGTKVEIKRTVAAPSVFIFPPSDEQLKSGTASVVCLLNNFYPREAKVQWKVDNALQSGNSQESVTEQDSKDSTYSLSSTLTLSKADYEKHKVYACEVTHQGLSSPVTKSFNRGEC heavy: ELCDDDPPEIPHATFKAMAYKEGTMLNCECKRGFRRIKSGSLYMLCTGNSSHSSWDNQCQCTSSATRNTTKQVTPQPEEQKERKTTEMQSPMQPVDQASLPGHCREPPPWENEATERIYHFVVGQMVYYQCVQGYRALHRGPAESVCKMTHGKTRWTQPQLICTGEMETSQFPGEEKPQASPEGRPESETSCLVTTTDFQIQTEMAATMETSIFTTEGGGGSVHMPLGFLGPGGS[about 120 residues left out][about 100 residues left out][human IgG1 Fc left out]	330 pM	29	260 pM	10	219000 pM	170	0.3 nm
pNOVI V2K K91_G4_IL-2Rγ_1_262_IL-2_21_153_CM1 VKCK_IL-2Rα_1_238_CM1_VHCH (antibody, human IgG1, kappa, masked K91 fusion, uncleaved; also called n880; construct No 880) light: LNTTILTPNGNEDTTADFFLTTMPTDSLSVSTLPLPEVQCFVFNVEYMNCTWNSSSEPQPTNLTLHYWYKNSDNDKVQKCSHYLFSEEITSGCQLQKKEIHLYQTFVVQLQDPREPRRQATQMLKLQNLVIPWAPENLTLHKLSESQLELNWNNRFLNHCLEHLVQYRTDWDHSWTEQSVDYRHKFSLPSVDGQKRYTFRVRSRFNPLCGSAQHWSEWSHPIHWGSNTSKENPFLFALEAGGGGSGGGGS[about 150 residues left out]GGGGSVHMPLGFLGPGGSDIQMTQSPSSLSASVGDRVTITCNVDQVIANWLNWYQQKPGKAPKLLIYAASSLQSGVPSRFSGSGSGTDFTLTISSLQPEDFATYYCQQMHPRAPKQFGQGTKVEIKRTVAAPSVFIFPPSDEQLKSGTASVVCLLNNFYPREAKVQWKVDNALQSGNSQESVTEQDSKDSTYSLSSTLTLSKADYEKHKVYACEVTHQGLSSPVTKSFNRGEC heavy: ELCDDDPPEIPHATFKAMAYKEGTMLNCECKRGFRRIKSGSLYMLCTGNSSHSSWDNQCQCTSSATRNTTKQVTPQPEEQKERKTTEMQSPMQPVDQASLPGHCREPPPWENEATERIYHFVVGQMVYYQCVQGYRALHRGPAESVCKMTHGKTRWTQPQLICTGEMETSQFPGEEKPQASPEGRPESETSCLVTTTDFQIQTEMAATMETSIFTTEGGGGSVHMPLGFLGPGGS[about 120 residues left out][about 100 residues left out][human IgG1 Fc left out]	660 pM	17	280 pM	12	459000 pM	178	0.2 nm
